# Data reported in ChEMBL document CHEMBL1201862, “PubChem BioAssay data set” (2004).
# System: NCI-H322M
# Assay: growth of human tumour cells (NCI), 48 h
row,Structure (SMILES),GI50
1,CC(=O)OC1OC2C(NC(=O)OC(C)(C)C)C1CC2(OCc1ccccc1)OCc1ccccc1 (stereo unspecified),inactive: 46.6 µM
2,COc1ccc(S(=O)(=O)N/N=C\c2cc([N+](=O)[O-])cc(I)c2O)c(OC)c1OC,inactive: 31.7 µM
3,CC1(O)CCn2c(=O)c3cc4ccccc4cc3c(=O)n2C1O (stereo unspecified),inactive: > 100 µM
4,C=C(NC(=O)C(=C)NC(=O)c1csc(C2=NC3c4csc(n4)C4NC(=O)c5csc(n5)C(C(C)(O)C(C)O)NC(=O)C5CSC(=N5)/C(=C/C)NC(=O)C(C(C)O)NC(=O)c5csc(n5)C3(CC2)NC(=O)C(C)NC(=O)C(=C)NC(=O)C(=C)NC(=O)C(C(C)C)NC2C=Cc3c(C(C)O)cc(nc3C2O)C(=O)OC4C)n1)C(N)=O (stereo unspecified),inactive: 44.5 µM
5,COC(=O)/C=C1/OC(c2ccccc2)=CC1=O,inactive: 35 µM
6,CC1(C)CC(N(C(=O)/C=C/c2ccc([N+](=O)[O-])o2)C2CCCCC2)CC(C)(C)N1,inactive: 13.4 µM
7,CC(C)(C)NNc1c([N+](=O)[O-])cnn(-c2ccccc2)c1=O,inactive: 11.1 µM
8,NC(=O)/C=C/NC(=O)/C=N\O,inactive: > 100 µM
9,Cc1cc(=O)cc2sc3cc(Cl)ccc3nc1-2,inactive: 6.32 µM
10,O=C1NC(=O)C23C(=O)NC(=O)C12C1C=CC3CC1 (stereo unspecified),inactive: > 10 µM
11,O=C(NCP(=O)(Oc1ccccc1)Oc1ccccc1)OCc1ccccc1,inactive: 90.6 µM
12,COc1ccccc1NC(=S)Nc1cccc(C)n1,inactive: > 100 µM
13,COc1ccc(CC(N)=O)cc1OC,inactive: > 1250 µM
14,COc1ccc(C2=NOP(c3ccccc3)(c3ccccc3)(c3ccccc3)C2)cc1,inactive: 22.8 µM
15,O=C(O)C(Cc1ccc(O)c([N+](=O)[O-])c1)N1C(=O)c2ccccc2C1=O (stereo unspecified),inactive: > 100 µM
16,COc1ccc(C2SCc3nc4ccccc4n32)cc1 (stereo unspecified),inactive: 5.02 µM
17,Cn1c(=O)nc2n(-c3ccc(Cl)cc3Cl)c3ccccc3nc-2c1=O,inactive: 7.33 µM
18,C[C@H]1[C@@H](c2ccccc2)O[B-](c2ccccc2)(c2ccccc2)[N+]1(C)C,inactive: > 100 µM
19,COc1cc(/C=C/C(=O)OCCc2ccccc2)ccc1O,inactive: 16.8 µM
20,Cc1ccc(S(=O)(=O)NCCCSCCN)cc1,inactive: > 100 µM
21,O=c1oc2ccc([N+](=O)[O-])cc2c(Nc2ccc3c(c2)Oc2ccccc2O3)c1[N+](=O)[O-],inactive: 29.2 µM

row,Structure (SMILES),GI50
1,CN(C)CCC1(C2=CCCC2)CC/C(=C\c2ccc3c(c2)OCO3)C1=O (stereo unspecified),inactive: 15.8 µM
2,CCN(CC)Cc1sc2nc3ccccc3n2c1-c1ccc(OC)cc1,inactive: 35.2 µM
3,CC1(C)OCC(C2OC(On3nnc4ccc(Cl)cc43)C3OC(C)(C)OC23)O1 (stereo unspecified),inactive: > 100 µM
4,C=CCC(CNC(=O)OCc1ccccc1)OC(=O)OCc1ccccc1 (stereo unspecified),inactive: > 100 µM
5,COc1cc(/C=N/Nc2nnc3c4ccccc4c4ncccc4c3n2)cc(OC)c1OC,inactive: > 10 µM
6,CC1=CC(=O)NP(=O)(Oc2ccc(Cl)cc2)N1 (stereo unspecified),inactive: > 100 µM
7,COc1cc([N+](=O)[O-])ccc1NC(=O)c1cccc([N+](=O)[O-])c1O,inactive: 26.9 µM
8,Clc1ccc(Cl)c(NNc2cc(Cl)ccc2Cl)c1,inactive: > 10 µM
9,CCN(CC)C(=O)c1cccc2c(OC)ccc(OC)c12,inactive: > 100 µM
10,COC1(OC)C[C@H](C)[C@@]23O[C@]24C2=CC(=O)C=CC2=N[C@H]3C#C/C=C\C#C[C@]14O,inactive: 1.19 µM
11,CCOc1ccc(OP2(=O)NC(=O)C=C(C)N2)cc1 (stereo unspecified),inactive: > 100 µM
12,N#Cc1c(-c2ccccc2)c2c([nH]c1=O)-c1cc([N+](=O)[O-])ccc1CCC2,inactive: 35.5 µM
13,O=c1[nH]c(Br)nc2c(Br)c[nH]c12,inactive: > 100 µM
14,CC(C)[C@@H](COC(C)(C)C)/N=C/N1CCc2c([nH]c3ccccc23)C1,inactive: > 100 µM
15,Cn1c(=O)cc(NCc2ccc(Cl)cc2)[nH]c1=O,inactive: > 100 µM
16,CCOC(=O)/C=C(/C(=O)OCC)n1cc(C)c(=O)[nH]c1=O,inactive: 15.4 µM
17,CC(=O)/C(=C\C1=CCCO1)C(=O)Nc1ccccc1C,inactive: > 100 µM
18,CCN(CC)C(=S)Oc1cc2oc(=O)cc(C)c2cc1Cl,inactive: > 100 µM
19,CCOC(=O)/C(=C\c1ccc(N(C)C)cc1)S(=O)(=O)C(F)(F)C(F)(F)C(F)(F)C(F)(F)F,inactive: > 100 µM
20,CC(SC(=S)Nc1cccc(F)c1)C(=O)O (stereo unspecified),inactive: 31.1 µM

#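 Cells were grown in 96-well plates and exposed to each compound for 48 hours at five concentrations; endpoints were interpolated linearly between bracketing concentrations, or set to the highest concentration if not reached. GI50 = concentration required for 50% inhibition of growth.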 The source made the active and inactive calls. No stated cut-off is given here; in the data, active = GI50 up to about 1.1 µM and inactive = higher.
